Results reported in PubChem BioAssay AID485344 (National Center for Advancing Translational Sciences (NCATS), 2010).
Several values for one entry are separate records, joined by “and”; a condition that tells them apart may be missing. Equal entries are not always repeated. Screen size: about 340,000 compounds; about 6,900 (2%) were called active. Cut-off read from the data, not from the text of the source: active = inhibition above about 30%; inactive = below that, where a call was filed. The entries are a selection whose mix differs from that of the whole data set. The source gives no active or inactive call for entries shown without one.

molecular target: D(2) dopamine receptor (Homo sapiens) (UniProt P14416); assay: HTS Assay for Allosteric Antagonists of the Human D2 Dopamine Receptor: Primary Screen for Antagonists; settings: HEK293 TREx D2 cells, calcium flux, dopamine EC80; at 10 µM; stronger effect = higher value; note: 0% is about no effect
How it was run: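 Calcium mobilization kinetics were recorded at 1 s intervals in tetracycline-induced HEK293 T-REx D2 cells, first for 180 s after compound addition and then 180 s after EC80 dopamine.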

UniProt P14416, sequence (P14416 whole entry, looked up): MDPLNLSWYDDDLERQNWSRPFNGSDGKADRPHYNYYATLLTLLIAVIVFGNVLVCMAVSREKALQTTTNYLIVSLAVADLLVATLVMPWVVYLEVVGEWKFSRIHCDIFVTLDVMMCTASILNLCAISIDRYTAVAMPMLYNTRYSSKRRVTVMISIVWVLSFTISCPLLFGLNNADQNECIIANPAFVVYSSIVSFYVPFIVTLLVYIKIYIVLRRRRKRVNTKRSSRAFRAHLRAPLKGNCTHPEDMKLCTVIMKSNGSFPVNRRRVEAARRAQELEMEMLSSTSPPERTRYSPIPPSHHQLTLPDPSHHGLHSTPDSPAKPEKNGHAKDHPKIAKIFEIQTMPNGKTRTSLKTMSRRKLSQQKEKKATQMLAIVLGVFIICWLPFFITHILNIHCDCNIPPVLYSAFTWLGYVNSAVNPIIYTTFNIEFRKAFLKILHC

Compound | inhibition
Cc1ccc(NC(=O)NC(C)c2c(-n3cccc3)sc(C)c2C)cc1F (configuration not stated) | -0.856%
COc1cc(NC(=O)C2CCN(c3nnc(C)c4c(C)n(-c5ccccc5)nc34)CC2)cc(OC)c1 | -2.88%
Cc1ccc2c(C)c(C(=O)NCC(c3ccc(Cl)cc3)N3CCOCC3)oc2c1 (configuration not stated) | -1.1%
Cc1ccc(-n2c(=O)[nH]c3cc(C(=O)NCCc4ccccc4)ccc3c2=O)cc1 | 8.12%
COCCn1c(SCC(=O)c2c(C)[nH]c3ccccc23)nc2cc(C(=O)NC(C)C)ccc2c1=O | -4.65%
CCOc1ccc(CCNC(=O)Cn2ccc3cc(S(=O)(=O)N4CCCCC4)ccc32)cc1 | 0.493%
COc1cccc(CNC(=O)c2ccc3c(c2)N(Cc2ccc(F)cc2Cl)C(=O)c2ccccc2S3)c1 | 23.7%
O=C(Nc1ccccc1F)c1nc(SCc2ccccc2F)ncc1Cl | 1.24%
Cc1ccccc1CN1C(=O)c2ccccc2Sc2ccc(C(=O)NCc3ccccc3)cc21 | 0.619%
Cc1ccc(Cl)cc1NC(=O)Nc1cn(CC(C)C)c(=O)c2ccccc12 | -26.4%
CCCc1nn2c(=O)cc(COC(=O)C3CCCCC3)nc2s1 | 1.48%
COc1ccc(-c2nn(-c3ccc(F)cc3)c3c2cnc2ccc(F)cc23)cc1OC | 15.2%
O=C1CN(C(=O)COc2ccccc2)C(c2ccc(F)cc2)c2cc(Br)ccc2N1 (configuration not stated) | 3.75%
COC(=O)c1cc2sc(Cl)cc2n1CC(=O)Nc1cc(OC)cc(OC)c1 | 0.811%
COc1ccc(OCC(=O)Nc2ccc(Cl)c(-c3nc4ncccc4o3)c2)cc1 | 14.3%
O=C(NCc1nc2ccccc2n1Cc1ccccc1Cl)c1ccccc1 | -2.27%
COC(=O)c1ccccc1NC(=O)c1oc2ccc3c(c2c1C)C(=O)CC(C)(C)O3 | -4.38%
Cc1cnc(C(=O)OCC(=O)NC(C)CCc2ccccc2)cn1 (configuration not stated) | active: 34.1%
CN1CCN(C(=O)c2ccccc2NC(=O)c2cccs2)CC1 | active: 36.5%
COC(=O)c1ccc2c(=O)n3nc(Nc4cc(OC)ccc4OC)sc3nc2c1 | 2.95%
Cc1ccc(OCc2nc(C#N)c(NCCc3ccccc3)o2)cc1 | 8.01%
CCCCn1c(CNC(=O)CCC)nc2ccccc21 | active: 33.7%
Cc1ccccc1NC(=O)CSC1=Nc2ccccc2C2=NC(Cc3ccccc3)C(=O)N12 (configuration not stated) | 7.68%
CCC(Sc1ncc(S(=O)(=O)c2ccc(Cl)cc2)c(=O)[nH]1)C(=O)Nc1ccc(OC)cc1 (configuration not stated) | -0.699%
O=C(Nc1cccc(-c2cscn2)c1)C1CCN(Cc2ccsc2)CC1 | active: 48.1%

Compound | inhibition
Cc1ccc2[nH]c(=O)c3cc(C(=O)N(CCCOC(C)C)Cc4ccco4)sc3c2c1 | 10.6%
COc1ccc(Cl)cc1NC(=O)CSc1nnc2[nH]c(=O)cc(-c3ccccc3)n12 | -0.359%
CCc1cccc(NC(=O)c2cc3c(s2)-c2ccccc2OC3)c1 | -0.774%
Cc1cc(C)c(NC(=O)C(=O)NCC(c2cccnc2)N2CCN(c3ccccc3F)CC2)c(C)c1 (configuration not stated) | -4.61%
O=C(CN1C(=O)c2cccc3cccc1c23)Nc1cccc(F)c1 | -1.56%
CC(=O)Nc1cccc(NC(=O)CSc2nccn2C2CCCC2)c1 | -19.6%
CN(Cc1ccccc1)c1ccc(-c2nc(-c3ccccc3)no2)cc1[N+](=O)[O-] | 11.9%
COc1ccccc1NC(=O)CSc1nc2c(oc3ccccc32)c(=O)n1-c1ccccc1F | 17.7%
CN1C(=O)Cc2cc(S(=O)(=O)CCC(=O)N3CCN(c4ccc(Cl)cc4)CC3)ccc21 | 9.16%
Cc1cc2oc(C(=O)N(Cc3ccc(N(C)C)cc3)CC3CCCO3)c(C)c2cc1Cl (configuration not stated) | -1.29%
COc1ccc(NC(=O)c2oc3ccccc3c2NC(=O)c2cc(C)cc(C)c2)c(OC)c1 | -11.1%
CN(CC(=O)Nc1ccc(Br)cc1)S(=O)(=O)c1cccc2nsnc12 | 6.99%
COc1ccc(NC(=O)C2CCN(C(=O)c3sc4nc[nH]c(=O)c4c3C)CC2)cc1Cl | 12.5%
CCOc1ccccc1NC(=O)CSc1nccn1Cc1ccc(F)cc1 | -2.72%
O=C(OCC1CCCO1)c1ccc2c(c1)N(Cc1ccccc1F)C(=O)c1ccccc1S2(=O)=O (configuration not stated) | -2.06%
Cc1ccccc1C(=O)Nc1ccc(C(=O)OCc2cc(=O)n3c4c(sc3n2)CCCC4)cc1 | 9.72%
Cc1ccc(C(=O)Nc2ccc(F)cc2)cc1S(=O)(=O)N1CCOCC1 | -5.9%
Cc1cccc(CNC(=O)c2cnc3sc(N4CCOCC4)nn3c2=O)c1 | 5.77%
CCOc1cccc(CN2CCCC(N3CCN(c4cccc(Cl)c4)CC3)C2)c1O (configuration not stated) | active: 36.6%
Cc1nn(CC(=O)NCc2ccccc2Br)c(=O)c2cc3occc3n12 | 1.01%
Cc1ccc(S(=O)(=O)N2CCCc3cc(NC(=O)c4c(F)cccc4F)ccc32)cc1 | 8.44%
CCc1ccc(C2=C(C)C(N3CCC(C(=O)NCc4ccc(C)o4)CC3)=NS2(=O)=O)cc1 | 3.04%
CCCCNC(=O)[C@@H](c1ccccc1)N1Cc2ccccc2C1=O | -5.32%
Cc1ccc(Cl)cc1-n1ncc2c(N3CCC(C(N)=O)CC3)ncnc21 | -9.29%
Cc1cccc(OCCCCn2c(C3CC(=O)N(c4ccc(C)cc4C)C3)nc3ccccc32)c1 (configuration not stated) | -8.48%

Compound | inhibition
CNc1oc(/C=C/c2cc(OC)c(OC)c(OC)c2)nc1C#N | 3.89%
CCN1CCOC(=O)C1CC(=O)Nc1cc(Cl)ccc1OC (configuration not stated) | 9.76%
CCCCn1c(=O)c2oc3ccccc3c2n(CC(=O)Nc2ccccc2OC)c1=O | -18.2%
COC(=O)COc1ccc2c(-c3cccc([N+](=O)[O-])c3)cc(=O)oc2c1 | active: 49.5%
O=C(N[C@@H](Cc1ccccc1)C(=O)OCc1ccccc1)c1nc[nH]c1C(=O)NC1CCNCC1 | active: 76.1%
CCOC(=O)c1c(NC(=O)/C=C/c2ccc(OCC)cc2)sc2c1CCC2 | -2.68%
Cc1ccc(CNC(=O)Cn2cc(C(=O)c3ccc(Cl)cc3)c(=O)c3ccc(C)nc32)cc1 | 5.68%
Cc1ccccc1CNC(=O)c1ccc2c(c1)N(Cc1ccccc1)CCS2 | -1.78%
Cc1cccc(C)c1Nc1c(-c2ccccc2O)nc2ncccn12 | 6.16%
O=C(CCCn1c(=O)c2cccn2c2cccnc21)Nc1ccccc1Br | 4.39%
O=c1oc2ccc3ccccc3c2cc1-c1nnc(Nc2cccc(F)c2)s1 | 7.09%
COc1cccc(CNC(=O)c2ccc(CS(=O)Cc3ccc(Cl)cc3)o2)c1 (configuration not stated) | 3.08%
Cc1ccc(C(=O)CSc2nnc3ccc4ccccc4n23)cc1 | -8.89%
Cc1ccc(CNC(=O)C2CCN(c3ncnc4c3nc3n4CCCCC3)CC2)cc1 | -2.78%
Cc1ccc(NC(CNS(=O)(=O)c2ccc(Cl)cc2)c2ccccc2)cc1 (configuration not stated) | -6.07%
CCOC(=O)C1CCCN(S(=O)(=O)c2cc(-c3cc(C)no3)ccc2C)C1 (configuration not stated) | 0.059%
Cc1cccc(N(C)c2nc3ccc(C)cc3n3nnnc23)c1 | -2.8%
CCC(=O)N1c2ccc(S(=O)(=O)N3CCN(c4ccccc4Cl)CC3)cc2CC1C (configuration not stated) | 17.7%
COc1ccc(-c2csc(C3=C(O)CN(Cc4ccc(Cl)cc4)C3=N)n2)cc1OC | active: 73.5%
O=C(NC1CCCCC1)/C(=C/c1ccc(Cl)cc1)NC(=O)c1ccccc1 | 3.65%
COc1ccc(NS(=O)(=O)c2coc(C(N)=O)c2)cc1Cl | active: 30.8%
CCN(CC)C(=O)c1ccccc1NC(=O)c1cccc(S(=O)(=O)N2CCC(C)CC2)c1 | -8.85%
CC(C)COP(=O)(OCC(C)C)C(O)c1ccccc1F (configuration not stated) | active: 52.4%
CCOc1ccc(CCNC(=O)c2nn(-c3ccc(OC)cc3)c(=O)c3c2c2ccccc2n3C)cc1OCC | 2.17%
S=C(NCC1CCCO1)Nc1ccc(Nc2ccccc2)cc1 (configuration not stated) | active: 40%

Compound | inhibition
O=C(Cc1ccc(F)cc1)NCCc1csc(-c2ccc(C(F)(F)F)cc2)n1 | -15%
Cc1ccc2[nH]c3c(=O)n(CC(=O)N(C)Cc4ccccc4)ncc3c2c1 | -5.15%
Cn1c(CN2CCCCC2)nc2cc(NC(=O)c3ccc(Cl)cc3)ccc21 | active: 30.9% and -13.5%
CCCN(C(=O)Cn1nc(Cc2ccncc2)c2ccccc2c1=O)c1ccccc1C | 0.593%
CCOc1ccc(-c2nnc(SCC(=O)NCCc3ccccc3)nc2-c2ccc(OCC)c(OC)c2)cc1OC | -1.95%
COc1ccc(Br)cc1CNC(=O)c1ccc(-n2c(C)cc3c2CCC(C)C3)cc1 (configuration not stated) | 8.44%
COCCCn1c(=N)c(C(=O)NC2CCCC2)cc2c(=O)n3cc(C)ccc3nc21 | -15.3%
Cc1cccc(C(=O)Nc2nnc(S(=O)(=O)N3c4ccccc4CC3C)s2)c1 (configuration not stated) | 15.9%
Cc1cc(O)c(CN2CCN(c3ccc(F)cc3)CC2)c2oc(=O)cc(C)c12 | 17.2%
CCOc1ccccc1C1Nc2ccccc2-c2nnc(SCc3ccccc3)nc2O1 (configuration not stated) | -17.1%
Cc1ccccc1CN1C(=O)C(O)(CC(=O)c2cccc(Br)c2)c2ccccc21 (configuration not stated) | 2.75%
COC(=O)c1[nH]c2cccc(OC)c2c1NC(=O)CCN1CCN(c2cccc(Cl)c2)CC1 | active: 38.3%
CCOc1ccc(OCC)c(NC(=O)c2c(C)nn(-c3ccccc3)c2-n2cccc2)c1 | 12.2%
COc1ccc(CCCc2nnc(SCC(=O)Nc3ccc(Cl)cc3)o2)cc1 | -0.476%
Cc1nn(C)c2c1c(C(F)(F)F)cc(=O)n2CC(=O)NC(C)(C)C | -13.8%
Cc1oc2ncnc(N3CCCCC3)c2c1C(=O)Nc1cccc(F)c1 | 3.89%
CCc1ccccc1NC(=O)c1ccc2[nH]c(C)c(C)c2c1 | -8.26%
CCc1ccc(CNC(=O)c2sc3ncnc(N(C)C4CCCCC4)c3c2C)cc1 | 8.85%
COc1ccc(-c2cc(-c3ccc(F)cc3)nc3c2COc2ccccc2-3)cc1 | -9.05%
COC(=O)c1ccccc1NC(=O)CCCS(=O)(=O)c1nc(-c2ccccc2OC)cc(C(F)(F)F)n1 | -6.09%
CCOC(=O)CNC(=O)Cn1nc(N2CCN(c3ccccc3)CC2)ccc1=O | -3.06%
CC(=O)c1cccc(NC(=O)c2cc(-c3ccc4c(c3)OCCO4)on2)c1 | -20.1%
